Among all 410,000 compounds or so, about 530 (0.13%) were called active. Inconclusive results, whose numbers are uncertain, are shown with a selection of clear calls. The call rests on the fitted dose curve; in most records, active means well fitted inhibition curve with a large enough effect; inconclusive means small, poorly fitted or top-dose-only effect, or another doubt; inactive means no such curve, though single readings can be large or run the other way. Potencies of inconclusive entries are doubtful fits and often do not repeat.
Experiment: qHTS of GLP-1 Receptor Inverse Agonists: Cytotox Screen
Settings: HEK293 cAMP-luciferase reporter cells, luminescence, 24 h; series mostly up to 38.3 µM
In short: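 Compound-treated cells are incubated 24 hr at 37 deg C under 5% CO2 after a 12 hour attachment period, then luciferase detection reagent is added and luminescence is measured following 12 min at room temperature; lowered signal indicates toxicity.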
For CCC(=NCCc1c(C)[nH]c2ccc(C)cc12)C1=C(O)CC(c2ccccc2)CC1=O (configuration not stated), the Potency was inconclusive: 1.12 µM [inhibitor, full curve, poor fit].
In the case of NC(=S)NN=C1CCCC(C(F)(F)F)C1 (configuration not stated), the Potency was inconclusive: 28.2 µM [inhibitor, single point].
In the case of Cc1ccc(C2=NN(C(=O)c3cccs3)C(c3ccccc3O)C2)cc1 (configuration not stated), the Potency was “inactive”.
In the case of CCOc1ccc2[nH]c3c(N4CCN(C(=O)c5ccco5)CC4)ncnc3c2c1, the Potency was inconclusive: 8.91 µM [inhibitor, partial curve, poor fit].
With COc1ccccc1NC(=S)N/N=C1\CC(C)(C)Oc2ccc(O)cc21 the Potency was inconclusive: 5.01 µM [inhibitor, full curve, poor fit].
In the case of Cc1cc(N(CCO)CCO)ccc1C(c1ccc(N(CCO)CCO)cc1C)c1ccccc1Cl, the Potency was inconclusive: 28.2 µM [inhibitor, single point].
With CSCCOC(=O)C1=C(C)NC(=O)NC1c1ccc2c(c1)OCO2 (configuration not stated) the Potency was inconclusive: 12.6 µM [inhibitor, single point].
For O=C(Nc1ccc(F)c(F)c1)C1CCCN1S(=O)(=O)c1ccc(F)cc1 (configuration not stated), the Potency was “inactive”.
For CCCc1nc2c(c(=O)c3ccccc3n2C)c(=O)n1C1CCCCCC1, the Potency was inconclusive: 8.91 µM [inhibitor, partial curve, poor fit].
For CCOC(=O)c1sc2ccccc2c1OC(=O)c1ccccc1OC, the Potency was inconclusive: 12.6 µM [inhibitor, single point].
For Cc1c(C(=O)N(C)Cc2ccccc2)sc2nc(-c3ccc(F)cc3)cn12, the Potency was inconclusive: 7.94 µM [inhibitor, partial curve, poor fit].
For Cc1cc(C)n2nc(CNC(=O)c3cccc(N(C)C)c3)nc2n1, the Potency was “inactive”.
With O=C(Nc1cc(S(=O)(=O)Nc2ccc(Cl)cc2)ccc1N1CCCCC1)c1ccc(F)cc1 the Potency was inconclusive: 10 µM [inhibitor, partial curve].
For CC1=NOC(=O)/C1=C\c1ccc(-c2cccc(Cl)c2)o1, the Potency was inconclusive: 28.2 µM [inhibitor, single point].
With CC(NC(=S)Nc1ccccc1Cl)C(c1cccs1)N1CCCC1 (configuration not stated) the Potency was inconclusive: 28.2 µM [inhibitor, single point].
In the case of Cc1cc(OCC(O)CN2C(C)CCCC2C)ccc1C(C)C (configuration not stated), the Potency was inconclusive: 11.2 µM [inhibitor, partial curve, poor fit].
With CCOC(=O)N1CCN(C(=O)C2CCN(Cc3cccc(OCc4ccccc4)c3)CC2)CC1 the Potency was inconclusive: 10 µM [inhibitor, partial curve].
For OCC[C@@H]1C[C@H](O)[C@@H](O)[C@@]2(OCCCc3ccccc32)O1, the Potency was inconclusive: 2.51 µM [inhibitor, full curve, poor fit].
In the case of O=c1[nH]c(-c2ccccn2)cc2ccccc12, the Potency was inconclusive: 11.2 µM [inhibitor, single point].
For COc1ccc2ccccc2c1CNC(C)c1ccccc1 (configuration not stated), the Potency was inconclusive: 10 µM [inhibitor, single point].
For O=C(CCCN1C(=O)/C(=C\c2ccccc2)SC1=S)Nc1ccccc1O, the Potency was inconclusive: 31.6 µM [inhibitor, single point].
With COc1ccccc1C(=O)NCCC(=O)NC1CCC(C)CC1 (configuration not stated) the Potency was “inactive”.
In the case of CNC[C@@H](C)NC[C@@H](Cc1ccccc1)NCCc1ccccc1, the Potency was inconclusive: 28.2 µM [inhibitor, single point].
For O=c1c2c(nc3cc(-c4ccc(F)cc4)[nH]n13)CCCC2, the Potency was inconclusive: 12.6 µM [inhibitor, single point].
For COc1ccc(COC(=O)Nc2cc3c(C(F)(F)F)nn(C)c3s2)cc1, the Potency was inconclusive: 28.2 µM [inhibitor, single point].
In the case of CCOC(=O)c1c(N)n(-c2ccc(N)cc2)c2nc3ccccc3nc12, the Potency was “inactive”.
For NC(=S)N/N=C\c1ccc(-c2cccc(Cl)c2Cl)o1, the Potency was inconclusive: 3.16 µM [inhibitor, full curve, poor fit].
For Cc1cc(=O)n2c3ccccc3n(CC(O)CN3CCCC3)c2c1C#N (configuration not stated), the Potency was inconclusive: 17.8 µM [inhibitor, partial curve, poor fit].
For OC[C@@H]1CN(Cc2ccco2)C[C@H](n2cnc3c(N4CCN(c5ccccc5)CC4)ncnc32)O1, the Potency was “inactive”.
With O=S(Cc1ccc(Br)cc1)Cc1nnc(SCc2ccc(Cl)cc2)n1-c1ccccc1 (configuration not stated) the Potency was inconclusive: 28.2 µM [inhibitor, single point].
For COc1ccc(NC(=O)COc2ccccc2C(=O)NCC(c2ccccc2)N(C)C)cc1Cl (configuration not stated), the Potency was inconclusive: 20 µM [inhibitor, single point].
For O=C(Nc1ccccc1Cl)C1CCCN(c2ncnc3c2nc2n3CCCCC2)C1 (configuration not stated), the Potency was “inactive”.
For CC(C)C[C@H](NC(=O)c1nc[nH]c1C(=O)NC(c1ccccc1)c1ccccc1)C(=O)OC(C)(C)C, the Potency was inconclusive: 28.2 µM [inhibitor, single point].
In the case of Clc1ccccc1C=NNc1ccccn1, the Potency was inconclusive: 11.2 µM [inhibitor, partial curve, poor fit].
In the case of Cc1cc(C)n2nc(N)nc2n1, the Potency was “inactive”.
With O=C(OCCc1cc2ccccc2c(=O)o1)c1ccc2c(c1)OCO2 the Potency was inconclusive: 28.2 µM [inhibitor, single point].
For CCOc1ccccc1NC1=CC(=O)CC(c2ccccc2)C1 (configuration not stated), the Potency was “inactive”.
With Cc1ccc(C)c(CSc2cn(CC(=O)N3CCCC3)c3ccccc23)c1 the Potency was inconclusive: 10 µM [inhibitor, single point].
In the case of CC(O)CNCCCOc1ccc(Cl)cc1C(C)(C)C (configuration not stated), the Potency was inconclusive: 28.2 µM [inhibitor, single point].
In the case of CCc1ccc(CNc2ncc(-c3cccc(OC)c3)n2C)cc1, the Potency was inconclusive: 10 µM [inhibitor, single point].
For Cc1cccc(C)c1NC(=O)Cn1c(=O)n(Cc2ccc(C(=O)NCc3ccco3)cc2)c(=O)c2sccc21, the Potency was inconclusive: 28.2 µM [inhibitor, single point].
For CCOC(=O)Cc1cc(C(=O)Nc2ccc(Br)cc2)sc1-c1ccc(C)cc1, the Potency was inconclusive: 1.41 µM [inhibitor, partial curve, poor fit].
Potency means the concentration at half of the fitted maximal effect.
